Test results from the supplement of paper PMC3334620.
The full ranking holds about 33,000 sequences; the median of “E-score (-0.5 to 0.5)” is about -0.043, and the highest 2% start at about 0.37. This is one part of the list.

biological target: T1, Upc2 (UniProt Q12151); test: PBM E-score (8-mer binding enrichment) (E-score (-0.5 to 0.5)); higher = stronger / more preferred TF binding; most listed sequences are background and not binding sites; details: protein concentration: 200 nM; construct: GST-full length
T1 sequence: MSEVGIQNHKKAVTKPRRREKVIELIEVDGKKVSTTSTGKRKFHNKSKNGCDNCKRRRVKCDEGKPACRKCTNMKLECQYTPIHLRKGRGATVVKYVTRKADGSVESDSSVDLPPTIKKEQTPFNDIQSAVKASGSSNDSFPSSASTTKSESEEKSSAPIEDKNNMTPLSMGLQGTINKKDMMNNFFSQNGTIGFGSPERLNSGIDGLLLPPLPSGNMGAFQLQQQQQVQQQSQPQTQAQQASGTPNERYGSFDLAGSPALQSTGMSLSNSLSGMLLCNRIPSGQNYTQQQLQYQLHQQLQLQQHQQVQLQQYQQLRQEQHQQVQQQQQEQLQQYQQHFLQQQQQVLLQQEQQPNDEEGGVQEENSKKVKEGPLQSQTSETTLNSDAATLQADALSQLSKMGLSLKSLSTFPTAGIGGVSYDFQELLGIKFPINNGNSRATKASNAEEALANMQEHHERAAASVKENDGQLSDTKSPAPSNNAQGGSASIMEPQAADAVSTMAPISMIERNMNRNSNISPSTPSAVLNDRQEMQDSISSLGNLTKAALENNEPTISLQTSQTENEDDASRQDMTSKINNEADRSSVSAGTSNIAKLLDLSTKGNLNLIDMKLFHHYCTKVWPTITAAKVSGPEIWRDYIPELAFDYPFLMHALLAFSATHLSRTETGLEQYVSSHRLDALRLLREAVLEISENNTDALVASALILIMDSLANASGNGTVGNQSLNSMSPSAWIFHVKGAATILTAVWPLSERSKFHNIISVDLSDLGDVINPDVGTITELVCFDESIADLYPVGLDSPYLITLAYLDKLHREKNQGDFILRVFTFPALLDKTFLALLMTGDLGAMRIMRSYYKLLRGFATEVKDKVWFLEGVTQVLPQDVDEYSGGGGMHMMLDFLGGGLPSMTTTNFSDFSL
Summary of the method: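 Yeast transcription factors carrying a GST tag, as full-length proteins or DNA-binding domains, were produced by PURExpress in vitro transcription/translation. About 100-200 nM protein was applied to universal all-10-mer Agilent arrays, double-stranded by primer extension on fresh or once-stripped slides. Bound protein was detected with fluorescent anti-GST, and scans were normalised with masliner. The Universal PBM Analysis Suite gave each ungapped eight-base word, pooled with its reverse complement, an E-score, a modified Wilcoxon-Mann-Whitney statistic.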

Sequence | PBM E-score
GCGCATCC | 0.0187
ACATGTCC | -0.0368
AAAAGCTT | -0.0712
CAGTACAA | -0.0317
GTACGGGA | 0.389
AATCTCAC | -0.02
ACTGTTCT | -0.162
CATTAACC | 0.0359
ATCAGTCG | 0.0568
ATGAATTA | 0.0203
CCTACGTC | -0.0661
AAAACCAA | 0.0197
ATTCACTC | -0.145
CATTCCCG | 0.0361
ATACTTGG | -0.221
GGGGAGTA | -0.293
AATGGGTG | -0.124
ATCTATGG | -0.173
GTGTCAAA | -0.105
AAAGGCCG | 0.134
ACGAGACA | 0.28
ATTGGCTC | -0.00635
CGAAGGTC | 0.177
ATCGGGGG | -0.195
ACGCCCTC | 0.0824

Sequence | PBM E-score
GAATACAA | -0.0496
AGCGAAAT | 0.109
GCGAAAGA | 0.0381
GACAAAAA | 0.0813
CGTTGCGC | 0.281
CTACTTTA | 0.0282
CTCGTGTC | 0.209
TGAGTCAA | -0.089
AGCCAGCA | -0.25
AACGGTAC | 0.316
AATGATCA | -0.14
GCATTCGC | 0.151
CATCTATA | 0.0557
CCGCCCGG | -0.126
GAGCAGTA | 0.053
GCCTCAGC | -0.214
AATTATGC | 0.0912
CGTTAGTC | 0.0726
ATCTCCCG | -0.163
ACTAGGAA | -0.242
CCGCCGAC | -0.176
ATCGAATC | -0.0848
GCAAATGC | -0.167
AATTAGGT | -0.0266
CGGACGTA | 0.174

Sequence | PBM E-score
AGCGACCA | 0.14
CTCTGAAA | -0.211
ATTAAGCC | -0.141
AAGATTCT | -0.301
GGATGTAC | 0.186
GTTCACGA | 0.251
CTCTACAG | -0.18
CAGTTCTA | -0.0821
ATGGCTAA | -0.117
ATAGCTAA | -0.155
AAACGCGG | 0.302
AACAGCTC | -0.0618
GCGCCCCA | -0.208
AGGAAATG | -0.0722
TAAGTAAA | -0.00508
AACCGCCT | -0.0946
ACGATTAT | 0.283
AGCAGGTG | -0.0794
ATATGAAG | -0.19
CACTAGCC | -0.0426
ATGTGCAA | 0.0666
CACAAAAA | 0.0697
AAAGTTAG | -0.0123
ATGTCGCC | 0.00869
CATACCAG | -0.0446

Sequence | PBM E-score
GCTGGTTA | -0.0868
ACTGTACG | 0.433
CAAGCCAG | -0.289
AGCCTATC | -0.102
CAAATGGA | 0.0251
CCGTACAA | 0.413
CGAGCCAG | 0.211
ACACTGGT | -0.0649
ATAACGTG | 0.0885
AATCCACC | -0.163
CAGTTGCG | -0.0445
AAGCTAAA | 0.0573
ACAGTTTG | -0.00269
ATTTTGAG | -0.0806
CGGTCACC | -0.0331
AGCGGGCA | -0.116
GACAGAAC | 0.186
CTGCAAGA | -0.0196
ATAACCAT | 0.198
ACCCCATG | -0.211
GCTCCATA | -0.113
CGTGCTCC | -0.0314
ATTATCGG | 0.0623
GGGAGTCA | -0.269
ACCCCGGG | -0.124

Sequence | PBM E-score
AGAGTCCA | -0.256
ATTCGGTG | 0.00165
AAGCTACT | 0.134
CTACCGGC | -0.38
ACCTTGCG | 0.0287
CAAAGAAA | 0.126
TTCCGGAA | -0.206
GACTGACA | -0.104
GACTCTCC | 0.044
AAATCCGT | 0.0321
AACTCCTT | -0.0745
GAGTCATC | -0.189
CTGGATGC | -0.0386
CCGTTGCA | -0.0404
ACGTGCAG | -0.053
CAATTGAA | 0.0837
GTTATGAA | 0.0713
ACCTACCG | 0.00737
CGCTGAAG | -0.103
ACCTCGCG | 0.218
CTCTTTGA | -0.197
ATCAATTG | 0.109
GCCACCCA | -0.258
ATGAAGGA | 0.021
ACTTACCC | -0.0385

Sequence | PBM E-score
CCTGATGA | -0.044
AAGAATCG | 0.155
GACAACGC | -0.0893
ACTTCGTA | 0.429
AGCGTCAG | -0.218
GTAAGCTA | 0.0624
CAAACAAC | -0.0706
ATAAACCC | -0.0338
ACTTCTGA | -0.307
ACTACCTC | -0.189
CCCACACA | -0.275
ACGACCTG | 0.366
TAAGCCGA | 0.0915
AAGTGAGC | -0.0963
GGGGATGA | -0.254
ACGAGTTA | 0.392
CCCCAAGA | -0.22
GCAGCTTA | -0.115
CGCTATTC | 0.102
AATGCCTC | 0.0552
CAGCCGTC | -0.154
ATTGTATG | -0.168
TAGTAACA | -0.0854
AAATTGTA | 0.0766
CCTCCCAC | -0.214

Sequence | PBM E-score
TAATGGTA | 0.144
TAATTGCA | 0.0463
ATACCGCC | -0.0676
GTCTTGTA | -0.0824
ATCTGGCC | -0.231
GTCTAGAC | 0.0278
CCACCCAC | -0.111
AGTGAGGC | -0.151
GCCTGCTA | -0.284
AGCACGAA | 0.0491
CTTATGCA | -0.09
GTAAGTAC | 0.184
AGGTTCTC | -0.0307
CTTCGGCA | 0.0234
ACCAAATC | -0.134
AGATTACC | -0.0913
GAGACTTA | -0.12
AGCCATAA | 0.0502
AGACATCC | -0.0776
CTCCATGA | -0.196
AAGCGTAA | 0.186
TCAAACGA | 0.471
